# Measured values from PubChem BioAssay AID2100 (National Center for Advancing Translational Sciences (NCATS), 2009).
# Screen size: about 300,000 compounds; about 1,200 (0.4%) were called active. The shares of active, inactive and inconclusive entries below differ from those in the screen. Calls come from the whole dose curve; as a rule, active = well fitted inhibition curve with a large enough effect; inconclusive = small, poorly fitted or top-dose-only effect, or another doubt; inactive = no such curve, though single readings can be large or run the other way. A potency beside an inconclusive call is a rough fit, not a confirmed value.
# Molecular target: Lysosomal alpha-glucosidase (Homo sapiens) (UniProt P10253)
# Test: qHTS Assay for Inhibitors and Activators of Human alpha-Glucosidase Cleavage of Glycogen;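 for activity change, negative = inhibition: 0% = full enzyme reaction and -100% = no-enzyme basal signal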
# Details: recombinant GAA, glycogen substrate, Amplex Red glucose oxidase fluorescence; activity change, negative = inhibition: at 76.4 µM (top of the series) unless noted
# How it was run: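 qHTS, 1536-well; enzyme 4 nM final; cpd up to 77 uM; substrate bovine liver glycogen 30 ug; 50 mM citrate/phosphate pH 5.0, 0.01% Tween-20; 37 C, 40 min; Amplex Red detection 45 min RT; Hill fit → AC50.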
# Potency is the fitted concentration of half-maximal effect.
Compound,"activity change, negative = inhibition",Potency
CCOc1ccc(C2CC(=O)Nc3nc(SCc4ccccc4C)[nH]c(=O)c32)cc1OC (centres undefined),inactive: 4.88% [at 76.3 µM],–
COc1cc(Br)cc(CN2CCN(C=O)CC2)c1O,–,"inconclusive: 24.9 µM [inhibitor, partial curve]"
Oc1ccc(/C(Cc2ccc3ccccc3n2)=N\Nc2ccccc2)c(O)c1,–,"inconclusive: 31.6 µM [inhibitor, partial curve]"
COc1cc2c(cc1OC)CN(Cc1cc(=O)oc3c(C)c(C)ccc13)CC2,–,"inconclusive: 35.5 µM [activator, single point]"
CN(c1ccccc1)S(=O)(=O)c1ccc(C(=O)NCc2cccs2)cc1,inactive: -7.01%,–
CC(=O)NNC(=S)NC(=O)c1ccccc1,–,"inconclusive: 8.91 µM [inhibitor, full curve, poor fit]"
CCN1CCN(Cc2ccc(NC(=O)Nc3cccs3)cc2)CC1,–,"inconclusive: 11.1 µM [inhibitor, partial curve]"
Oc1ccc(/C=N/Nc2ccnc3cc(Cl)ccc23)c(O)c1O,–,"inconclusive: 15.8 µM [inhibitor, partial curve]"
O=C(NCCNc1ccc([N+](=O)[O-])cc1)c1ccc(Cl)cc1,–,"inconclusive: 11.2 µM [inhibitor, single point]"
Cc1sc(NC(=O)c2ccco2)c(CN2CCC(C)CC2)c1C,–,"inconclusive: 35.5 µM [inhibitor, single point]"
Cc1ccc(S(=O)(=O)c2nnn3c2nc(NCc2ccc4c(c2)OCO4)c2sccc23)cc1C,inactive: -15.4% [at 76.3 µM],–
Cc1cccc(NC(=O)C2CCCN2S(=O)(=O)c2ccc3nc(-c4ccccc4)[nH]c3c2)c1 (centres undefined),inactive: -0.236% [at 76.3 µM],–
CC(=O)Nc1sc(N/N=C/c2ccc(C)cc2)nc1-c1ccc(C)cc1,–,"inconclusive: 50.1 µM [inhibitor, partial curve, poor fit]"
C=CCNC(=S)NNC(=O)c1ccc(OCCCC)cc1,–,"inconclusive: 15.8 µM [inhibitor, partial curve]"
CCOc1cc(C(=O)Nc2ccc(-c3cn4cccnc4n3)cc2)cc(OCC)c1OCC,–,"inconclusive: 6.31 µM [inhibitor, partial curve]"
O=C(NCc1ccccc1)c1ccc(NC(=O)N2CC3CCCN3c3ccccc32)cc1 (centres undefined),–,"inconclusive: 22.4 µM [inhibitor, partial curve]"
Cc1ccn2c(Nc3ccc4c(c3)OCCO4)c(-c3ccc(C)o3)nc2c1,–,"inconclusive: 10 µM [inhibitor, full curve]"
COc1cc(OC)c(NC(=O)N2CCc3cc(S(=O)(=O)N4CCC(C)CC4)ccc32)cc1Cl,inactive: 10.4% [at 76.3 µM],–
NNc1nc(-c2ccccc2)nc2sc3c(c12)CCCC3,–,"inconclusive: 20 µM [inhibitor, partial curve]"
NNc1nc2ccc(Cl)cc2s1,–,"inconclusive: 22.4 µM [inhibitor, partial curve]"
COc1cc(CNc2ccc(N3CCCC3)cc2)cc(Cl)c1OC,–,"inconclusive: 6.26 µM [activator, partial curve]"
O=C(NNC(=S)Nc1ccc(F)cc1)C1CC1c1ccc(Cl)cc1 (centres undefined),–,"inconclusive: 31.6 µM [inhibitor, single point]"
O=C(NNc1ccccn1)C(c1ccccc1)c1ccccc1,–,"inconclusive: 28.2 µM [inhibitor, partial curve]"

Compound,"activity change, negative = inhibition",Potency
Cc1ccccc1CNCc1c(C(=O)O)c(C)n(Cc2ccc(F)cc2Cl)c1C,inactive: 16.4% [at 76.3 µM],–
CCCCCC(=O)Nc1nc(C)c(-c2csc(Nc3ccccc3OC)n2)s1,–,"inconclusive: 9.92 µM [inhibitor, full curve, poor fit]"
CCOC(=O)C1=C(C)NC2=C(C(=O)CCC2)C1c1ccc(O)c(OCC)c1 (centres undefined),–,"inconclusive: 8.91 µM [inhibitor, partial curve]"
COc1ccc(NC2CC(=O)N(c3ccc(C(=O)O)cc3)C2=O)cc1 (centres undefined),–,"inconclusive: 1.4 µM [inhibitor, full curve]"
CC(=O)N1CCc2cc(S(=O)(=O)NC(CC(C)C)C(=O)NCCc3cccc(C)c3)ccc21 (centres undefined),inactive: 16.5% [at 76.3 µM],–
CCCOc1ccc(NCC(=O)Nc2ccc(C)cc2C)cc1,–,"inconclusive: 50.1 µM [inhibitor, single point]"
CC(C)=N/N=C1\NC(=O)C(C)S1 (centres undefined),–,"inconclusive: 24.9 µM [inhibitor, partial curve]"
COc1ccc(/C=C/C(=O)Nc2ccc3nc4c(c(Nc5ccc(OC)c(OC)c5)c3c2)CCCC4)cc1,inactive: -27.7% [at 76.3 µM],–
COc1cc(C2NC(=O)NC(C)=C2C(=O)OC2CCCCC2)cc(Cl)c1O (centres undefined),–,"inconclusive: 28.2 µM [inhibitor, single point]"
O=c1[nH]c2ccc(NCc3ccc(-c4ccc(F)cc4)o3)cc2[nH]1,–,"inconclusive: 28.2 µM [inhibitor, partial curve]"
N/N=c1\sc2ccccc2n1-c1ccccc1,–,active: 20 µM
COc1ccc(/C(C)=N/NC(=O)c2ccncc2)cc1,–,"inconclusive: 20 µM [inhibitor, partial curve]"
CC(=O)Nc1ccc(S(=O)(=O)NC2=C(N3CCN(Cc4ccccc4)CC3)C(=O)c3ccccc3C2=O)cc1,–,"inconclusive: 56.2 µM [inhibitor, single point]"
Brc1ccc(/C=N/Nc2ccccc2)cc1,–,"inconclusive: 15.7 µM [inhibitor, partial curve]"
CC(=O)c1ccc(NC(=O)CSc2nnc(N)s2)cc1,–,"inconclusive: 56.2 µM [inhibitor, partial curve]"
NC(=S)N/N=C/c1cccc(O)c1O,–,"inconclusive: 4.97 µM [inhibitor, full curve]"
CCC1CCCCN1C(=O)CCS(=O)(=O)c1cc2c(cc1C)NC(=O)CO2 (centres undefined),inactive: -6.69% [at 76.3 µM],–
Cc1ccc(Nc2c(-c3ccc(C)o3)nc3cccc(C)n23)cc1,–,"inconclusive: 5.01 µM [inhibitor, full curve]"
Cc1ccc(Cn2ncc3c(NN)ncnc32)cc1,–,"inconclusive: 11.2 µM [inhibitor, single point]"
CCOC(=O)C1=NN(C(=O)COc2ccccc2)C(O)(c2ccc(Br)cc2)C1 (centres undefined),–,"inconclusive: 39.8 µM [inhibitor, partial curve]"
COc1ccc(N(C)C(=S)Nc2ccc3nc(C)c(C)nc3c2)cc1,–,"inconclusive: 14.1 µM [inhibitor, partial curve]"
COc1cc(CN2CCCCCC2)cc(OC)c1O,–,"inconclusive: 11.2 µM [inhibitor, partial curve]"
Cc1ccc(-n2nc(C(=O)N(C)Cc3ccccc3)c3c4ccccc4n(C)c3c2=O)cc1,inactive: -4.27% [at 76.3 µM],–

Compound,"activity change, negative = inhibition",Potency
Cc1cc(-c2c(C)[nH]n(-c3ccc(Cl)cc3)c2=O)n(-c2ccccc2)n1,–,"inconclusive: 12.6 µM [inhibitor, partial curve]"
CC(=O)Oc1cccc(N2C(=O)C3CC=C(Cl)CC3C2=O)c1 (centres undefined),inactive: 5.61%,–
Cc1cc2c(cc1S(=O)(=O)CCC(=O)N1CCCCC1C)OCC(=O)N2 (centres undefined),inactive: 5.86% [at 76.3 µM],–
Nc1ccc2oc(-c3ccccc3Cl)cc(=O)c2c1O,–,"inconclusive: 10 µM [inhibitor, partial curve]"
CCC(C)C1NC(=S)N(Cc2ccccc2)C1=O (centres undefined),–,"inconclusive: 12.6 µM [inhibitor, partial curve, poor fit]"
O=C(O)c1ccc(C2(c3ccc(C(=O)O)cc3)OC(=O)c3ccccc32)cc1,–,"inconclusive: 22.4 µM [inhibitor, single point]"
O=S(=O)(NCCOCC(F)(F)F)c1ccc2oc3ccccc3c2c1,–,"inconclusive: 10 µM [inhibitor, partial curve]"
Oc1ccc(Br)cc1-c1nc2cnccn2c1NC1CCCC1,–,active: 15.8 µM
Cc1ncc(CO)c(/C=N/NC(=O)c2cc(O)c(O)c(O)c2)c1O,–,"inconclusive: 6.31 µM [inhibitor, full curve]"
CSc1nn(Cc2cccc(Cl)c2)c(N(C(C)=O)C(C)=O)c1S(=O)(=O)c1ccccc1,inactive: -12.5% [at 76.3 µM],–
CC(C)(C)C(=O)Nc1nc2c(s1)CN(Cc1ccccc1)CC2,–,"inconclusive: 22.4 µM [activator, single point]"
COc1ccc(CC(=O)N(Cc2nc(-c3ccc(C)cc3)no2)C(C)C)cc1,inactive: 12.6% [at 76.3 µM],–
COc1ccc(S(=O)(=O)Nc2ccc(O)c3ccccc23)cc1,–,active: 9.92 µM
COc1ccc(C2Nc3ccccc3C(=O)N2O)cc1CN1CCOCC1 (centres undefined),–,"inconclusive: 14.1 µM [inhibitor, partial curve]"
COc1cccc(-c2nc3n(n2)C(c2cccs2)C(C(=O)Nc2cccnc2)=C(C)N3)c1 (centres undefined),–,"inconclusive: 17.8 µM [inhibitor, single point]"
COC(=O)c1ccc(Cl)cc1NC(=O)N(Cc1ccc(OC)cc1)C1CCN(C(C)=O)CC1,inactive: -5.82% [at 76.3 µM],–
COC(=O)C1=C(O)/C(=C\c2ccc(CNS(=O)(=O)c3ccc(Cl)cc3)o2)N=C1C,–,"inconclusive: 24.9 µM [inhibitor, single point]"
COc1ccccc1CNc1n[nH]c(NCc2ccccc2OC)n1,–,active: 24.9 µM
COc1ccc(/C=N/NC(=O)C(=O)NCC2CCCO2)cc1 (centres undefined),inactive: -4.66%,–
Cc1ccccc1NC(=S)C1=C(O)c2sccc2N(C)S1(=O)=O,inactive: -4.89%,–
Clc1ccc(Nc2c(-c3ccccc3Cl)nc3ccc(Cl)cn23)cc1,–,"inconclusive: 17.8 µM [inhibitor, partial curve]"
CN1CCC(=NNc2ccc(S(=O)(=O)N3CCOCC3)cc2[N+](=O)[O-])CC1,–,"inconclusive: 39.5 µM [inhibitor, single point]"
CCCOc1ccc(C2CC(=O)Nc3c2c(=O)n(C)c(=O)n3C)cc1OC (centres undefined),–,"inconclusive: 50.1 µM [inhibitor, single point]"
